# Experimental data taken from paper PMC5426793.
# Chains of the proteins cited; added tags and fusions are not shown.
# UniProt O43791: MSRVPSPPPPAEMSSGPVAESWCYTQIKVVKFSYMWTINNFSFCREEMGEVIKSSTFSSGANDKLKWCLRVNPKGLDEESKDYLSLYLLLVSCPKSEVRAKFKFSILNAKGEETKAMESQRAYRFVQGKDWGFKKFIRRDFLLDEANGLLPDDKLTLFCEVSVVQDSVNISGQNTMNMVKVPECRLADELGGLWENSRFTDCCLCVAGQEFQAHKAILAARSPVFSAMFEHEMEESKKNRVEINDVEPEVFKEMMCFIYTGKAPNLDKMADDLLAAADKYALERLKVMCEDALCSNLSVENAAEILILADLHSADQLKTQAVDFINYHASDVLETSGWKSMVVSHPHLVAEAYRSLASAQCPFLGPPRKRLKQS
# These are yes or no findings as the source states them, for the method shown. Binding seen in cells or lysates may run through a third protein. Some binding calls cover weakened binding; strength is not graded here.
# B1: DEK (endogenous, LNCaP) (protein, UniProt P35659 1-375)
# chain: MSASAPAAEGEGTPTQPASEKEPEMPGPREESEEEEDEDDEEEEEEEKEKSLIVEGKREKKKVERLTMQVSSLQREPFTIAQGKGQKLCEIERIHFFLSKKKTDELRNLHKLLYNRPGTVSSLKKNVGQFSGFPFEKGSVQYKKKEEMLKKFRNAMLKSICEVLDLERSGVNSELVKRILNFLMHPKPSGKPLPKSKKTCSKGSKKERNSSGMARKAKRTKCPEILSDESSSDEDEKKNKEESSDDEDKESEEEPPKKTAKREKPKQKATSKSKKSVKSANVKKADSSTTKKNQNSSKKESESEDSSDDEPLIKKLKKPPTDEELKETIKKLLASANLEEVTMKQICKKVYENYPTYDLTERKDFIKTTVKELIS
# Molecular target: FLAG-SPOP (lentivirus, LNCaP) (UniProt O43791)
# Experiment: co-IP; LNCaP cells infected with lentivirus expressing FLAG-SPOP or control, 20 μM MG132 for 8 h before harvesting; anti-FLAG antibody; endogenous partners by Western blot
binder,measurement,value
B1,binding,binds
